# Test results: PubChem BioAssay AID1768 (National Center for Advancing Translational Sciences (NCATS), 2009)
# Among all 270,000 compounds or so, about 620 (0.23%) were called active. Inconclusive means that the source gave no clear call. Such entries were picked first, then a sample of the others. Calls follow the shape of the dose curve; as a rule, active = well fitted inhibition curve with a large enough effect in the polarisation, with a control signal flat (not every such curve was filed as active); inconclusive = small, poorly fitted or top-dose-only effect, or effect the other way, or a change in a side signal; inactive = no such curve, though single readings can be large or run the other way; the % refers to the polarisation. Potencies of inconclusive entries are doubtful fits and often do not repeat. A note “side channel” means that the fit belongs to a control or component signal, not to the main read-out.
# Target: Menin (Homo sapiens) (UniProt O00255)
# Experiment: qHTS Assay for Inhibitors Targeting the Menin-MLL Interaction in MLL Related Leukemias: Competition With Texas Red Labeled MLL-derived Mutant Peptide; as to FP activity change, negative = inhibition: % of control where 0% means no effect
# Conditions: fluorescence polarization; FP activity change, negative = inhibition: at 61.6 µM (top of the series)
# Potency is read from the fitted curve at half-maximal effect; tags tell the direction and shape of the fitted curve or compound fluorescence and quenching.
# Chain of UniProt O00255 (O00255 whole entry, looked up): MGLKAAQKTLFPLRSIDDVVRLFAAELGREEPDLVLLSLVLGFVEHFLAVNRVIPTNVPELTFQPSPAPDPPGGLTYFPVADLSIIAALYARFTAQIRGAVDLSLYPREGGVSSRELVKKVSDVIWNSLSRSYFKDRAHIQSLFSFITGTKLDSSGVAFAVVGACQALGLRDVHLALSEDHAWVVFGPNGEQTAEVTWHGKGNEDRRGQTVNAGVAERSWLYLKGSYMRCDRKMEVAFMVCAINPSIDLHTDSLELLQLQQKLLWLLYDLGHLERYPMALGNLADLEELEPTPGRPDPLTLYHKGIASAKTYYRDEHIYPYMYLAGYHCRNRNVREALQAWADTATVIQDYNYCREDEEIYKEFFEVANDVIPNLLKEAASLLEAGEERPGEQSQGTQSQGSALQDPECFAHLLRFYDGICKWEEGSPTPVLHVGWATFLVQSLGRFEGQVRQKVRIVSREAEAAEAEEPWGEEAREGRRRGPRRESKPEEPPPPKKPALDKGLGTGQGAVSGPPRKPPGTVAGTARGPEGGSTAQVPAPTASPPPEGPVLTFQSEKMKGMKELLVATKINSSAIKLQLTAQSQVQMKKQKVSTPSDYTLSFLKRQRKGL
SMILES,Potency,"FP activity change, negative = inhibition"
Cc1ccnc(NS(=O)(=O)c2ccc(NC(=O)c3cc(-c4ccccc4)nc4ccccc34)cc2)n1,"inconclusive: 8.91 µM [quencher, side channel, partial curve]",–
c1ccc(C2OCC3(CO2)COC(c2ccccc2)OC3)cc1 (centres undefined),"inconclusive: 35.5 µM [fluorescent, single point]",–
COc1ccc2c(c1)c(=O)oc1cc(OC(C(=O)O)c3ccccc3)ccc12 (centres undefined),"inconclusive: 31.6 µM [quencher, side channel, single point]",–
COc1ccccc1C1CC(c2c(-c3ccccc3)c3cc(Cl)ccc3[nH]c2=O)=NN1S(C)(=O)=O (centres undefined),"inconclusive: 22.4 µM [fluorescent, side channel, partial curve]",–
COc1ccc(NC(=O)CC2C(=O)N(Cc3cccs3)C(=S)N2C(C)C)cc1 (centres undefined),"inconclusive: 15.8 µM [quencher, side channel, partial curve]",–
Cc1cnc(C(=O)Nc2ccc(N3CCN(C(=O)OC(C)(C)C)CC3)cc2)cn1,"inconclusive: 8.91 µM [inhibitor, full curve]",–
Cc1nn(Cc2ccccc2Cl)c2sc(C(=O)Nc3nccs3)cc12,"inconclusive: 10 µM [quencher, side channel, partial curve]",–
O=c1c2ccccc2nc(-c2ccc([N+](=O)[O-])cc2)n1O,"inconclusive: 14.1 µM [quencher, side channel, partial curve]",–
COc1ccc(-n2nc(C(=O)NCC(=O)N3CCCC(C)C3)c3ccccc3c2=O)cc1 (centres undefined),"inconclusive: 44.7 µM [inhibitor, partial curve, poor fit]",–
CCN(CC)CCC(c1ccc2c(c1)OCO2)c1c(OC)cc(OC)c2c(-c3ccccc3)cc(=O)oc12 (centres undefined),"inconclusive: 2.82 µM [fluorescent, side channel, full curve, poor fit]",–
CCN(CC)CCN(C(=O)C1CCCCC1)c1nc2cc3c(cc2s1)OCO3,"inconclusive: 8.91 µM [fluorescent, side channel, partial curve]",–
COc1cc(/C(O)=C(\C#N)c2nc3ccccc3[nH]2)cc(OC)c1OC,"inconclusive: 28.2 µM [quencher, side channel, single point]",–
Cc1cccc(N=C2NC(=O)S/C2=C\c2ccco2)c1,"inconclusive: 35.5 µM [quencher, side channel, single point]",–
Cc1ccc(NC(=O)c2c(C)nc3sc(C(=O)NC4CCCC4)c(N)c3c2-c2ccco2)c(C)c1,inactive,–
C=C(C)Cn1c(Sc2nnc(C)s2)nc2c1c(=O)[nH]c(=O)n2C,–,inactive: -1.01% [at 11.7 µM]
COc1ccc(Cl)cc1NC(=S)N(Cc1ccccc1C)CC1CCC(C(=O)O)CC1 (centres undefined),"inconclusive: 14.1 µM [quencher, side channel, partial curve]",–
N#Cc1nc(COc2ccc(-c3ccccc3)cc2)oc1NCc1cccnc1,"inconclusive: 22.4 µM [quencher, side channel, single point]",–
COc1ccc(-c2csc(NS(=O)(=O)c3ccc([N+](=O)[O-])cc3)n2)cc1,"inconclusive: 31.6 µM [quencher, side channel, single point]",–
COCC(=O)N1CCC2(CC1)CCN(c1ccncc1)CC2,inactive,–
COc1ccccc1Oc1ccc(N/C=C/C(=O)c2ccco2)cc1,"inconclusive: 20 µM [quencher, side channel, single point]",–
O=[N+]([O-])c1c(Nc2cccc(O)c2)cc(Cl)c2nonc12,"inconclusive: 17.8 µM [quencher, side channel, partial curve]",–
CCN(CC)c1ccc(NC(=O)c2ccc(Cl)nc2)cc1,"inconclusive: 17.8 µM [quencher, side channel, single point]",–
Cc1ccc(NC(=O)C2CC(c3ccc(F)cc3)=NO2)cc1 (centres undefined),"inconclusive: 28.2 µM [fluorescent, side channel, single point]",–
CC(C)(C)c1ccc(C(=O)Nc2ccc(NC(=O)c3ccco3)cc2)cc1,"inconclusive: 39.8 µM [fluorescent, side channel, single point]",–
O=C(O)c1ccccc1CSc1nc2ccccc2s1,"inconclusive: 39.8 µM [quencher, side channel, single point]",–
O=C(O)c1ccc(Cl)c(S(=O)(=O)Nc2ccc(OCc3ccccc3)cc2)c1,"inconclusive: 15.8 µM [quencher, side channel, partial curve]",–
Cc1cccc2cc3c(N)c(C(=O)N4CCc5ccccc54)sc3nc12,"inconclusive: 22.4 µM [quencher, side channel, single point]",–

SMILES,Potency,"FP activity change, negative = inhibition"
Cc1cc(C)c(S(=O)(=O)c2c(C)cccc2C)c(OCC(C)C)n1,"inconclusive: 25.1 µM [fluorescent, side channel, partial curve]",–
CCc1c(C2(O)CCCCC2)[nH]c2cc(C(F)(F)F)ccc12,"inconclusive: 17.8 µM [quencher, side channel, partial curve]",–
Cc1ccc(NC(=S)NC(=O)c2ccc(F)cc2)cc1S(=O)(=O)Nc1cccc(Cl)c1,"inconclusive: 39.8 µM [inhibitor, partial curve, poor fit]",–
CCCCCn1c(CN(C)Cc2ccccc2)nc2c1c(=O)n(C)c(=O)n2C,"inconclusive: 20 µM [fluorescent, side channel, partial curve]",–
CCOC(=O)c1sc(-n2[nH]c(C)cc2=O)nc1C,"inconclusive: 39.8 µM [quencher, side channel, single point]",–
O=C(NCCc1ccccc1)C1CCN(Cc2cccc3ccccc23)CC1,inactive,–
COc1ccc(S(=O)(=O)Nc2nc3ccccc3nc2Nc2ccc3c(c2)OCO3)cc1,"inconclusive: 2.82 µM [quencher, side channel, full curve, poor fit]",–
CCN(CC)CCOc1ccc(/C(=C(/Cl)c2ccccc2)c2ccccc2)cc1,"inconclusive: 6.31 µM [fluorescent, side channel, partial curve]",–
CCN1C(=O)/C(=C/C=C2/Sc3ccc4ccccc4c3N2CCO)SC1=S,"inconclusive: 2.82 µM [fluorescent, side channel, full curve]",–
Cc1ccc(N2CCN(CCCCN3C(=O)C4CCCN4C3=O)CC2)cc1 (centres undefined),"inconclusive: 39.8 µM [inhibitor, single point]",–
O=C(O)c1ccc(N/N=C/c2ccc(C(F)(F)F)cc2)cc1,"inconclusive: 28.2 µM [quencher, side channel, partial curve]",–
Cc1cccc(Oc2cc(NC(=O)Cn3cnc([N+](=O)[O-])n3)cc([N+](=O)[O-])c2)c1,"inconclusive: 11.2 µM [quencher, side channel, partial curve]",–
O=c1cc(CN2CCc3ccccc32)c2ccc(O)cc2o1,"inconclusive: 39.8 µM [quencher, side channel, single point]",–
C/C(=N\OC(=O)NC1CCCCC1)c1sc(-c2ccccc2)nc1C,"inconclusive: 3.16 µM [fluorescent, side channel, full curve, poor fit]",–
Oc1oc(-c2cccc3ccccc23)nc1/C=N/c1nccs1,"inconclusive: 28.2 µM [quencher, side channel, single point]",–
CC1=NN(C(N)=S)C(=O)C1N=Nc1ccccc1C(=O)O (centres undefined),"inconclusive: 2.51 µM [inhibitor, full curve]",–
O=C(Nc1nnc(S(=O)(=O)N2CCCCC2)s1)c1cccc(Br)c1,"inconclusive: 11.2 µM [quencher, side channel, partial curve]",–
Nc1nc(Nc2ccc(Cl)cc2)nc2ccccc12,"inconclusive: 15.8 µM [quencher, side channel, partial curve]",–
Cc1ccc(CN2C(=O)CSC2c2ccccc2F)cc1 (centres undefined),"inconclusive: 15.8 µM [inhibitor, partial curve]",–
CC(C)(C)[C@H]1C=C(C(=O)N2CCN(Cc3ccc4c(c3)OCO4)CC2)O[C@@H](OCc2ccc(CO)cc2)C1,"inconclusive: 3.16 µM [fluorescent, side channel, partial curve]",–
O=C(Nc1cccc(-c2cccc(F)c2)c1)C1CCN(Cc2ccc(CO)o2)CC1,"inconclusive: 50.1 µM [inhibitor, partial curve]",–
COc1cccc(/C=C2\Sc3ccc(C(=O)NCC4CCCO4)cc3N(C)C2=O)c1 (centres undefined),inactive,–
COc1ccc([C@@H]2[C@@H]3C(=O)N(C(C)(C)C)C(=O)[C@@H]3[C@]3(Cc4ccc(Cl)cc4)C(=O)N(c4ccc(Br)cc4)C(=O)N23)cc1,"inconclusive: 39.8 µM [inhibitor, single point]",–
Cc1ccc(N2CC(C(=O)Nc3cc(C)on3)CC2=O)cc1 (centres undefined),"inconclusive: 7.08 µM [inhibitor, single point]",–
Cc1cccc(N2CCN(c3ccc(NC(=O)/C=C\C(=O)O)cc3)CC2)c1,"inconclusive: 14.1 µM [quencher, side channel, partial curve]",–
CN(C)Cc1c(C(=O)N/N=C/c2ccc(OCc3ccc(F)cc3)cc2)nnn1-c1nonc1N,"inconclusive: 5.01 µM [fluorescent, side channel, partial curve]",–
N#C/C(=C\c1ccc(N2CCOCC2)c([N+](=O)[O-])c1)c1nc2ccccc2[nH]1,"inconclusive: 31.6 µM [quencher, side channel, single point]",–
